Assay results from the supplement of paper PMC3334620.
Whole data set: some 33,000 sequences, median “E-score (-0.5 to 0.5)” near -0.016, cut for the highest 2% near 0.32. Some of the results follow.

The sequences below were run against T1, Stp1 (UniProt B3LFK1) (assay: PBM E-score (8-mer binding enrichment) (E-score (-0.5 to 0.5)); higher = stronger / more preferred TF binding; most listed sequences are background and not binding sites). Conditions: protein concentration: 200 nM; construct: GST-full length.
T1 sequence: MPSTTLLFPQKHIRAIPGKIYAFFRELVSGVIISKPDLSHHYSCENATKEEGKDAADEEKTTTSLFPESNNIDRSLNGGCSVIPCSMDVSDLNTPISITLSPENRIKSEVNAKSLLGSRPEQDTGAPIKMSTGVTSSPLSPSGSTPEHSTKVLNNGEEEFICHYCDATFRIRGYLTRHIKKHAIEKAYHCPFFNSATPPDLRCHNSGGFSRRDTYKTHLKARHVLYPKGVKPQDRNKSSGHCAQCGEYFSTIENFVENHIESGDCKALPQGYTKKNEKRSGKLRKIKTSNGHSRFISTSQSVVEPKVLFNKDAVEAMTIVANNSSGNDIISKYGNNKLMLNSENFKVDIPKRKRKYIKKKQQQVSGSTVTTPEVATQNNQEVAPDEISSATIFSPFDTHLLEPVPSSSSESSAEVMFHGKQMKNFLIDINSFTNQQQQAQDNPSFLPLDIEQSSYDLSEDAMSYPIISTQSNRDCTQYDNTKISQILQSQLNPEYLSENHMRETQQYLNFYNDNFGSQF
Outline: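 PURExpress in vitro transcription/translation supplied GST-tagged yeast transcription factors, either full-length or DNA-binding domain. Applied at about 100-200 nM to universal all-10-mer Agilent arrays double-stranded by primer extension, the bound protein was detected with fluorescent anti-GST. E-scores, modified Wilcoxon-Mann-Whitney statistics, were given by the Universal PBM Analysis Suite to ungapped eight-base words pooled with their reverse complements after masliner normalisation.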

| Sequence | PBM E-score |
| --- | --- |
| AGTCCCCC | -0.455 |
| AGAAGAAT | -0.163 |
| AGTCTCGG | -0.262 |
| ATGGCATA | 0.226 |
| AGCCCATG | -0.0373 |
| AGGATAGA | 0.0673 |
| AGATCCCC | -0.256 |
| CCTAATCA | -0.0333 |
| CTTATATC | 0.199 |
| CTCTTAAA | 0.105 |
| CGCCACTC | 0.263 |
| CAGATCAG | -0.0397 |
| ATACTGCA | 0.0487 |
| ACTGGATC | -0.0855 |
| CTATCCAC | -0.0379 |
| ACACACGA | 0.135 |
| AGCCCTAA | 0.034 |
| CGACTATA | -0.175 |
| GAGGTGCA | 0.0251 |
| AAACGTGG | -0.0726 |
| AGAGAAAT | 0.178 |
| CGTTCCTA | 0.0272 |
| AAATGAAT | -0.0333 |
| AGATAATA | 0.115 |
| AAAGCGCC | 0.302 |

| Sequence | PBM E-score |
| --- | --- |
| ATCTCACC | 0.0145 |
| ACCTTGAC | -0.244 |
| ACATCCTC | -0.16 |
| CTCTTGCA | -0.148 |
| TAATGGCA | 0.18 |
| TTGGCAAA | 0.264 |
| ACCATGAT | -0.266 |
| CTAGTCAA | -0.199 |
| CGGCCAAG | 0.098 |
| GGGTAGAC | -0.269 |
| CCGAATCC | 0.0112 |
| CCGATGAG | -0.0793 |
| CCATTGCC | 0.0367 |
| CTGTATTC | 0.0866 |
| GCTCAAGA | -0.152 |
| GGTGTGTA | -0.214 |
| CTCCGCGA | -0.0489 |
| AGTCTCCA | -0.275 |
| CGCTCGCC | 0.239 |
| ACAGTGCT | -0.0113 |
| ATCTCAAT | 0.0218 |
| CAGGACGG | -0.0616 |
| ACGCTAAT | -0.176 |
| TAACCTTA | -0.0457 |
| CGTGTTCA | 0.0832 |

| Sequence | PBM E-score |
| --- | --- |
| GGTGGTGA | -0.125 |
| AATATACA | 0.175 |
| ACGAACTC | 0.117 |
| ATATGTCG | 0.118 |
| ATTTAAAC | 0.0433 |
| AGTCACTG | -0.0867 |
| CTCCTTAA | -0.0225 |
| GGCTGGAC | -0.0567 |
| ACATAAGG | 0.0917 |
| CCTCTGGA | -0.21 |
| GCCTGTCA | -0.0812 |
| ATCGGAAT | 0.135 |
| CACGCGAC | -0.12 |
| AGGAACCG | -0.0597 |
| CGCGCATA | 0.133 |
| GGACGGTA | -0.221 |
| AGGACGAT | -0.0289 |
| ATCCGACG | 0.0697 |
| AGAGCGCT | -0.218 |
| GGTTACTA | -0.125 |
| AACACATC | -0.00391 |
| CACATAAC | 0.0275 |
| AGTTGAAG | -0.212 |
| CCGCAGCC | 0.148 |
| AAGCAACC | -0.0666 |

| Sequence | PBM E-score |
| --- | --- |
| ACACCCTA | -0.155 |
| AACTGACG | -0.0413 |
| CCGTTCGC | 0.226 |
| AAGAGATT | -0.00321 |
| TAAGGCTA | 0.0342 |
| AAGCAATG | 0.115 |
| GCGACGAA | 0.0964 |
| ACGTAAAA | 0.219 |
| CCTTTAAA | 0.0143 |
| GGAGATAA | -0.0256 |
| ATAGTGCC | 0.311 |
| CCCTTGTC | -0.0524 |
| CCGCACGC | 0.323 |
| ACCTTACA | -0.0495 |
| ACGCCTGC | -0.0286 |
| GCATCCGC | -0.0715 |
| ACTTTAAG | -0.012 |
| CCTTTTGC | 0.214 |
| ACACGCAG | -0.159 |
| GGGATAAA | 0.122 |
| GCAACTGA | 0.15 |
| GTCGGAAC | -0.16 |
| GCTCAGAA | 0.00512 |
| GGTCAAAC | 0.121 |
| CCCTCGCA | -0.177 |

| Sequence | PBM E-score |
| --- | --- |
| AGGATCCC | -0.132 |
| GCTCCTAA | -0.0873 |
| AATTCCAA | 0.0947 |
| CGGCGTAA | 0.39 |
| CTCATACA | 0.102 |
| CTTCCAGA | -0.0274 |
| TATTAGGA | 0.0514 |
| CCTCACTA | -0.0282 |
| AAACAGAA | 0.0538 |
| ATCGGCCC | -0.123 |
| CGACAGCA | -0.0693 |
| ATGGGTCG | -0.286 |
| GACATGCA | -0.127 |
| GTCGCATA | -0.0363 |
| GCATGTGA | -0.059 |
| GATCTCGA | -0.0356 |
| ACTGGCAG | 0.0412 |
| AGATACAG | 0.0795 |
| ACCTGAGT | -0.234 |
| AGGCCTTC | -0.188 |
| CGACCTTC | -0.164 |
| ATTTCATC | 0.172 |
| GCGCGGGA | 0.163 |
| GCGCCACC | 0.24 |
| ATTAAGTG | 0.131 |

| Sequence | PBM E-score |
| --- | --- |
| GGTTCAAA | 0.24 |
| CGCACCAG | 0.281 |
| AGAACCAG | -0.128 |
| CGTATCCC | -0.128 |
| CAGGAATC | 0.0334 |
| TATAATGA | 0.142 |
| GAAAAAGA | 0.0921 |
| GCAAAAAA | 0.198 |
| ATTCCGGA | 0.00668 |
| GTTTTCTA | 0.139 |
| ATAATCCG | -0.0502 |
| AGTACTTC | 0.00091 |
| GCCCTGTA | 0.118 |
| ATCTGTGG | -0.118 |
| GCAGCAGA | -0.0587 |
| GCGTTACA | 0.156 |
| CCTTTCAC | 0.0917 |
| ATTGGCCG | 0.0762 |
| GAGTTCTA | -0.163 |
| ATGATTCG | 0.0526 |
| CTACCTTA | -0.0359 |
| TACAGGAA | 0.098 |
| GTACGTCA | -0.0934 |
| AGCGTGAT | -0.107 |
| GCATATTA | 0.114 |

| Sequence | PBM E-score |
| --- | --- |
| GCGTTTCC | 0.0723 |
| AGTCGTAG | -0.161 |
| CAGAGGAG | -0.261 |
| CAACGCTC | -0.164 |
| CCTTGGCC | -0.224 |
| AGGCGAAG | 0.0567 |
| CCGCCCAA | -0.21 |
| GCGTTCCA | -0.0331 |
| ATTTGCAG | 0.0524 |
| CAGACGCC | 0.114 |
| CATAAAAA | 0.245 |
| CCTAAATC | 0.0381 |
| GGATTCAA | 0.03 |
| CAGCATAA | -0.0365 |
| AAACATCG | -0.0386 |
| AATTCTAA | 0.0821 |
| CTTGTTGA | 0.0222 |
| ACATTGCT | 0.0731 |
| CGGTCCTA | -0.195 |
| TGGGGAAA | -0.0661 |
| ATAGGTTA | 0.0587 |
| GAATACTA | 0.162 |
